Screen size: about 350,000 compounds; about 31,000 (8.9%) were called active. Inconclusive results, whose numbers are uncertain, are shown with a selection of clear calls. Calls follow the shape of the dose curve; as a rule, active = well fitted inhibition curve with a large enough effect; inconclusive = small, poorly fitted or top-dose-only effect; inactive = no such curve, though single readings can be large or run the other way. Where the call is inconclusive, the potency comes from a doubtful curve fit.
Target: Histone-lysine N-methyltransferase EHMT2 (Homo sapiens) (UniProt Q96KQ7)
Experiment: qHTS Assay for Inhibitors of Histone Lysine Methyltransferase G9a; also: nearly all actives have a fitted effect of over 75% in size
Details: G9a H3K9 monomethylation, AlphaScreen, 2 h; activity, negative = inhibition: at 59 µM (top of the series) unless noted
Method in brief: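 Step 1: enzyme (final 20 nM) with compound, 15 min RT. Step 2: substrate peptide 500 nM and SAM 20 uM, 2 h RT. Step 3: anti-H3K9me1 antibody and AlphaScreen beads, 10 min, then plate read.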
% is scaled to controls: 0 for no effect and ±100 for the full control effect; potency is read from the fitted curve at half-maximal effect; tags tell the direction and shape of the fitted curve.

Sequence of UniProt Q96KQ7 (Q96KQ7 whole entry, looked up): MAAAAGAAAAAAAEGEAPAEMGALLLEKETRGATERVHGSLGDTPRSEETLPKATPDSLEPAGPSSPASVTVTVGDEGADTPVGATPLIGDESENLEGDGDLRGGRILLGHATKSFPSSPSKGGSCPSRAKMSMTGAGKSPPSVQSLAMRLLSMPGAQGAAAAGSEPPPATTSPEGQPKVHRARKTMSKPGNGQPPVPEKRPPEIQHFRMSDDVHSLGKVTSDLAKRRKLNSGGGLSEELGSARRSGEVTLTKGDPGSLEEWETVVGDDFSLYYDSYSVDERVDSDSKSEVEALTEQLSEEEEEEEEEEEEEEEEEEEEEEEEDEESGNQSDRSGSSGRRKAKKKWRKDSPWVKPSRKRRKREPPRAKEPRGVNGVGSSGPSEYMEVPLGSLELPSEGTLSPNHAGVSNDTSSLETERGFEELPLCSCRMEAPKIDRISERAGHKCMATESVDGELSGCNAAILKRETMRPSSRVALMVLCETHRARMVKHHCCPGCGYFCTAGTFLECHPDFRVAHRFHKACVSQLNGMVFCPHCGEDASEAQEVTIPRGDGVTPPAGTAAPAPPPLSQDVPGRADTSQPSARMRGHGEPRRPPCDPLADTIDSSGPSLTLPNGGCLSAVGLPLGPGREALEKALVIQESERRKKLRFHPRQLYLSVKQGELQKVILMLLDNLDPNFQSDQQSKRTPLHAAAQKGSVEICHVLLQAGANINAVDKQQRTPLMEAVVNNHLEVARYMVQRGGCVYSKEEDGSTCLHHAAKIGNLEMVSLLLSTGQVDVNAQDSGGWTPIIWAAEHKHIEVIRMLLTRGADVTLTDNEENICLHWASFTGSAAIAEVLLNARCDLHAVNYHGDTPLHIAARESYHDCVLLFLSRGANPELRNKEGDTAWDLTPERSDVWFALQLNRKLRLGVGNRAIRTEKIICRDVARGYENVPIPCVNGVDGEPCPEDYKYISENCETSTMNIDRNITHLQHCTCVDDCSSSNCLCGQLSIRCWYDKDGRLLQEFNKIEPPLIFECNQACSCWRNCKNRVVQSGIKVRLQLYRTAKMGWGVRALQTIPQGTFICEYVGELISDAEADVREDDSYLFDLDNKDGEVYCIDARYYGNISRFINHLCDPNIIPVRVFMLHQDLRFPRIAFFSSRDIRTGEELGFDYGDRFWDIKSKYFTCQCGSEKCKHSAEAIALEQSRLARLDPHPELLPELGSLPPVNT

Structure (SMILES) | activity, negative = inhibition | Potency
CCCOc1ccc(C(F)(F)F)cc1NC(=O)CN1C(=O)C(=O)N(CC)C1=O | inactive: 1.93% [at 2.33 µM] | –
Cc1cc(S(=O)(=O)N2CCOCC2)ccc1OCC(=O)N1CCCC1 | – | inactive
Cc1occc1-c1nnc(SCC(=O)N(C)c2ccccc2)o1 | – | inconclusive: 50.1 µM [inhibitor, partial curve]
COc1ccc2cc(C(=O)/C=C/c3cc(OC)c(O)c(OC)c3)ccc2c1 | – | active: 50.1 µM
COc1ccc2c(c1)c(CC(=O)N1CCOCC1)c(C)n2C(=O)c1ccc(Cl)cc1 | inactive: 24.5% [at 12.7 µM] | –
O=C(O)c1cc(N/N=C/C=C/c2ccccc2)ccc1Cl | – | inconclusive: 44.7 µM [inhibitor, partial curve, poor fit]
COc1cc(/C=C2/NC(=O)NC2=O)cc(Br)c1OCc1ccc(C(=O)O)cc1 | – | inconclusive: 89.1 µM [inhibitor, single point]
COc1ccc(C(CC(=O)Nc2ccc(C)cn2)N2Cc3ccccc3C2=O)cc1OC (stereo not given) | – | inconclusive: 4.47 µM [inhibitor, partial curve, poor fit]
COc1ccc(CNC(=O)CSCc2cnn(-c3ccccc3)c2-n2cccc2)cc1 | – | active: 31.6 µM
Cc1cc(Cl)ccc1OCC(=O)N1C(C)CCCC1C (stereo not given) | – | inactive
COc1ccc(-n2c(=O)/c(=C\c3cccs3)s/c2=C(/C#N)C(=O)N2CCN(C)CC2)cc1 | – | active: 50.1 µM
CC(OC(=O)CNS(=O)(=O)/C=C/c1ccccc1)C(=O)Nc1ccc(S(=O)(=O)N2CCCC2)cc1 (stereo not given) | – | active: 10 µM
COC(=O)c1c(C)oc2ccc(N(C(=O)c3ccncc3)S(=O)(=O)c3cc(C)c(C)cc3C)cc12 | – | active: 10 µM
CCC(C)[C@H](NC(=O)N1CC(=O)Nc2ccccc21)C(=O)N[C@@H](Cc1c[nH]c2ccccc12)C(=O)O (stereo not given in full) | – | inactive
Cc1cc2ccccn2c1C(=O)c1cccc(S(=O)(=O)N2CCOCC2)c1 | – | inconclusive: 56.2 µM [inhibitor, partial curve, poor fit]
COc1ccc(N2CCN(C(=O)COc3ccc4ccccc4c3)CC2)cc1 | – | inconclusive: 56.2 µM [inhibitor, partial curve, poor fit]
COc1cccc(CNC(=O)Cn2c(=O)oc3cc(S(=O)(=O)N4CCCC4)ccc32)c1 | – | inactive
CCCNC(=O)C1CCN(S(=O)(=O)c2ccc(-c3nn[nH]n3)cc2)CC1 | – | inconclusive: 28.2 µM [inhibitor, partial curve, poor fit]
CCOC(=O)c1c(/N=C/C2=C(O)CC(C)(C)CC2=O)sc(C(C)=O)c1C | inconclusive: -88.8% [inhibitor] | –
Cc1ccccc1S(=O)(=O)N1[C@@H](c2cccc(Cl)c2)C(C(=O)O)=CC[C@H]1c1ccc(Cl)cc1 | inactive: -5.32% [at 2.33 µM] | –
CC1CN(C(=O)CSc2nnc(-c3ccc(Cl)cc3)n2C)CC(C)O1 (stereo not given) | – | inactive
CCc1cc(S(N)(=O)=O)cc(CC)c1NC(C)=O | – | inconclusive: 5.01 µM [inhibitor, single point]
CC(C)(CNC(=S)NCCc1ccccc1)CNC(=S)NCCc1ccccc1 | – | active: 10 µM
N#Cc1c(/N=C/c2ccco2)oc(-c2ccccc2)c1-c1ccccc1 | – | inconclusive: 3.98 µM [inhibitor, single point]

Structure (SMILES) | activity, negative = inhibition | Potency
N#CC1=C(N)N(c2ccc(Cl)c(Cl)c2)C(=O)C1 | – | inconclusive: 79.4 µM [inhibitor, single point]
CC(C)N(C(=O)CSc1nc2ccccc2n1Cc1ccccc1)C(C)C | – | inactive
COc1cc(NC(=O)Nc2cccc(Cl)c2)c(C(=O)O)cc1OC | – | inconclusive: 56.2 µM [inhibitor, partial curve, poor fit]
Fc1ccccc1C(c1nnnn1C1CCCC1)N1CCN(Cc2ccccc2)CC1 (stereo not given) | – | inconclusive: 25.1 µM [inhibitor, single point]
CCCc1nc2oc3c(OC)ncnc3c2c2c1COC(C)(C)C2 | – | inactive
COc1ccc(S(=O)(=O)N2CCN(CC(=O)N3c4ccccc4CC3C)CC2)cc1OC (stereo not given) | – | active: 56.2 µM
CSCc1cc(N2CCCC2)nc(-c2ccccc2)n1 | – | inactive
O=C(/C=C/c1ccccc1)NCCN1CCOCC1 | – | inconclusive: 22.4 µM [inhibitor, partial curve, poor fit]
CCn1c(COc2ccccc2)nnc1SCC(=O)c1cccc([N+](=O)[O-])c1 | – | active: 39.8 µM
CCCn1c(C2CCCN2c2nc(-c3cccc(Br)c3)cs2)nc2ccccc21 (stereo not given) | – | inconclusive: 89.1 µM [inhibitor, single point]
CCC12CN3CC(C)(CN(C1)C3c1ccc(O)cc1O)C2=O (stereo not given) | – | inconclusive: 0.794 µM [inhibitor, partial curve, poor fit]
O=C(NCc1ccccc1Cl)C1CCN(S(=O)(=O)c2ccc3c(c2)CCCN3C(=O)C2CCC2)CC1 | – | inactive
CC1CCCC(NS(=O)(=O)c2cccc3nsnc23)C1C (stereo not given) | – | inconclusive: 89.1 µM [inhibitor, single point]
C(=N\Nc1nncc2ccccc12)/c1ccccc1 | – | inconclusive: 28.2 µM [inhibitor, single point]
COc1ccc2c(c1)CCC1C2=NN(/C(C)=C/C(C)=O)C1c1cccc(F)c1 (stereo not given) | – | inactive
O=C(O)CC(NS(=O)(=O)c1ccc(Cl)s1)c1ccccc1 (stereo not given) | – | inactive
N#CC(C(=O)NC1CC1)c1nc2ccccc2nc1N1CCCC1 (stereo not given) | – | inconclusive: 10 µM [inhibitor, partial curve, poor fit]
COc1cc(NS(=O)(=O)c2ccc(NC(=O)C(C)Oc3ccc(Cl)cc3Cl)cc2)nc(OC)n1 (stereo not given) | – | inconclusive: 0.708 µM [inhibitor, full curve, poor fit]
COc1cccc(OCC(=O)NNC(=S)Nc2ccc(Cl)cc2Cl)c1 | – | inconclusive: 4.47 µM [inhibitor, partial curve, poor fit]
COc1cccc(/C=N/NC(=O)c2cc(C34CC5CC(CC(C5)C3)C4)[nH]n2)c1 | – | inconclusive: 79.4 µM [inhibitor, single point]
c1ccc(Nc2nc(-c3ccccn3)cs2)cc1 | – | inactive
COC(=O)c1ccc(/C=N/N2C(C)CCCC2C)cc1 (stereo not given) | – | inconclusive: 44.7 µM [inhibitor, partial curve, poor fit]
CC(C)(C)OC(=O)N/N=C\c1ccc(OC(=O)c2ccco2)cc1 | – | inactive
CCOc1ccc(-c2csc(NNC3=NCCCCC3)n2)cc1 | – | active: 7.94 µM

Structure (SMILES) | activity, negative = inhibition | Potency
Cc1ccc(N2CC(C(=O)Nc3nnc(C)s3)CC2=O)cc1 (stereo not given) | – | inconclusive: 79.4 µM [inhibitor, single point]
O=C1Cc2c([nH]c3ccc(Br)cc23)-c2ccccc2N1 | – | active: 39.8 µM
C=CCn1c(O)c(N=NC(=S)Nc2cccc(C)c2)c2ccccc21 | – | active: 14.1 µM
Cc1ncoc1C(=O)N1CCCC(C(=O)c2ccc(-c3ccccc3)cc2)C1 (stereo not given) | – | inconclusive: 8.91 µM [inhibitor, full curve, poor fit]
CN(Cc1ccco1)C(=O)C(Cc1ccccc1)NS(=O)(=O)c1ccc2c(c1)CCC(=O)N2 (stereo not given) | – | inconclusive: 100 µM [inhibitor, single point]
O=c1[nH]c(/C(=N\O)c2ccccc2)no1 | – | inconclusive: 0.158 µM [inhibitor, full curve, poor fit]
O=[N+]([O-])c1c(-c2cn[nH]c2)n[nH]c1-c1cn[nH]c1 | – | inconclusive: 70.8 µM [inhibitor, partial curve, poor fit]
CCOc1ccc2c(c1)-c1c(ssc1=S)C(C)(C)N2C(=O)c1ccco1 | – | active: 11.2 µM
Cn1ncc(S(=O)(=O)Cc2ccccc2)c(Br)c1=O | – | active: 1.5 µM
COC(=O)c1ccc(N2NC(=O)/C(=C/c3ccc(-c4ccc(Cl)c(C(=O)O)c4)o3)C2=O)cc1 | – | active: 17.8 µM
COc1ccc(N2CCN(C(=O)CCS(=O)(=O)c3ccc(OC)cc3)CC2)cc1 | – | inconclusive: 56.2 µM [inhibitor, single point]
COc1ccc(S(=O)(=O)n2nc(OC(C)=O)cc2N)cc1 | inconclusive: -71.6% [inhibitor] | –
CCC(CC)C(=O)NCc1ccccc1Cl | – | inactive
COc1ccccc1-c1nnc2sc(C3CCCCC3)nn12 | – | inconclusive: 89.1 µM [inhibitor, single point]
CCn1c(-c2cc(Cl)ccc2OC)n[nH]c1=S | – | active: 5.62 µM
S=C1NCCOCCOCCOCCOCCN1 | – | inconclusive: 89.1 µM [inhibitor, single point]
O=C(Nc1ccc(CN2CCOCC2)cc1)c1cc2ccccn2n1 | – | inconclusive: 39.8 µM [inhibitor, partial curve]
O=C(O)COc1ccccc1/C=N/NC(=O)c1cccc(S(=O)(=O)Nc2cccc(Cl)c2)c1 | – | inconclusive: 8.91 µM [inhibitor, partial curve, poor fit]
Cc1cc(C)cc(N=c2c([N+](=O)[O-])nn(-c3ccc4c(c3)OCCO4)n2O)c1 | – | active: 10 µM
COc1cccc(C(=O)COC(=O)C2CC(=O)N(c3ccc(Oc4ccccc4OC)cc3)C2)c1 (stereo not given) | – | inconclusive: 10 µM [inhibitor, partial curve, poor fit]
Cc1cc([N+](=O)[O-])cc2c1-c1ncccc1C2=Nc1ccccc1 | – | inconclusive: 1.12 µM [inhibitor, partial curve, poor fit]
CCOC(=O)c1c(NC(=O)C2C3C=CC(C3)C2C(=O)O)sc2c1CC(C)CC2 (stereo not given) | – | inconclusive: 44.7 µM [inhibitor, partial curve]

From PubChem BioAssay AID504332 (National Center for Advancing Translational Sciences (NCATS), 2011)
